From the antibiotic and cytotoxicity screens of Wong et al. (2023)
This is one part of the list.

Assays:
[1] = system: HSkMC (human skeletal muscle cells); assay: cytotoxicity call (relative viability < 0.9); settings: 10 µM
[2] = system: HepG2; assay: cytotoxicity call (relative viability < 0.9); settings: 10 µM
[3] = system: S. aureus RN4220; assay: growth inhibition call (relative growth <= 0.2); settings: 50 µM

SMILES | cytotoxicity call [1] | cytotoxicity call [2] | growth inhibition call [3]
COc1ccc(CN(C)C[C@H]2OCCCC[C@H](C)Oc3ccc(NS(=O)(=O)c4ccccc4)cc3C(=O)N([C@H](C)CO)C[C@@H]2C)cc1 | inactive | inactive | inactive
O=C(Nc1ccc(S(=O)(=O)OCC(F)(F)C(F)(F)C(F)(F)C(F)F)cc1)NC1(C(F)(F)F)Oc2ccccc2O1 | inactive | inactive | active
C[C@H](CO)N1C[C@H](C)[C@H](CN(C)C(=O)Nc2ccc(F)cc2)OCCCC[C@H](C)Oc2ccc(NS(=O)(=O)c3ccc(F)cc3)cc2C1=O | inactive | inactive | inactive
N#CCNC(=O)CN1C(=O)c2ccccc2C1=O | inactive | inactive | inactive
CN(C)CCOc1ccc(CN)cc1 | inactive | inactive | inactive
CC1(C)[C@H](C(N)=O)CC[C@@]1(C)C(=O)O | inactive | inactive | inactive
C[C@H](CO)N1C[C@H](C)[C@@H](CN(C)Cc2ccc(-c3ccccc3)cc2)Oc2ccc(NC(=O)Cc3ccccc3)cc2C1=O | inactive | inactive | inactive
COc1ccccc1C(=O)Nc1ccc2c(c1)C(=O)N(C)[C@@H]1CC[C@@H](CC(=O)NCc3ccc(Cl)c(Cl)c3)O[C@@H]1CO2 | inactive | active | inactive
C[C@H]1CN([C@@H](C)CO)C(=O)Cc2cc(NC(=O)C3CC3)ccc2O[C@@H]1CN(C)S(=O)(=O)c1cccs1 | inactive | inactive | inactive
C[C@H](CO)N1C[C@H](C)[C@H](CN(C)Cc2ccccc2)OCCCC[C@H](C)Oc2ccc(NC(=O)NC3CCCCC3)cc2C1=O | inactive | inactive | inactive
C[C@H](CO)N1C[C@H](C)[C@H](CN(C)Cc2ccncc2)Oc2ccc(NC(=O)c3ccncc3)cc2C1=O | inactive | inactive | inactive
C[C@@H]1CN([C@@H](C)CO)C(=O)c2cccc(NC(=O)Nc3cccc4ccccc34)c2O[C@@H]1CN(C)Cc1ccc(C(=O)Nc2ccccc2N)cc1 | inactive | inactive | inactive
C[C@H]1CCCCO[C@H](CN(C)C(=O)Nc2ccccc2)[C@@H](C)CN([C@@H](C)CO)C(=O)c2cc(NC(=O)CCC(F)(F)F)ccc2O1 | inactive | inactive | inactive
